Experimental data from patent publication US12103979B2, “N-acetylated and non-acetylated dipeptides containing arginine to reduce the viscosity of viscous compositions of therapeutic polypeptides” (AMGEN INC., priority 2017, dated 2024).

Assays:
[1] = Viscosity of therapeutic antibodies of Table 1 at exemplary concentration; assay type: physicochemical; settings: at the Conc. (133.9-162.5 mg/ml)
[2] = pI of therapeutic antibodies of Table 1; assay type: physicochemical

B1: CGRPR: therapeutic antibody; IgG2, Lambda; LC SEQ ID NO 5, HC SEQ ID NO 6 (antibody, listed as Homo sapiens)
heavy: MDMRVPAQLLGLLLLWLRGARC[about 100 residues omitted here]DRTGYSISWSSYYYYYGMDVWGQGTTVTVSSASTKGPSVFPLAPCSRSTSESTAALGCLVKDYFPEPVTVSWNSGALTSGVHTFPAVLQSSGLYSLSSVVTVPSSNFGTQTYTCNVDHKPSNTKVDKTVERKCCVECPPCPAPPVAGPSVFLFPPKPKDTLMISRTPEVTCVVVDVSHEDPEVQFNWYVDGVEVHNAKTKPREEQFNSTFRVVSVLTVVHQDWLNGKEYKCKVSNKGLPAPIEKTISKTKGQPREPQVYTLPPSREEMTKNQVSLTCLVKGFYPSDIAVEWESNGQPENNYKTTPPMLDSDGSFFLYSKLTVDKSRWQQGNVFSCSVMHEALHNHYTQKSLSLSPGK
light: MAWALLLLTLLTQDTGSWAQSVLTQSPSASGTPGQRVTISCSGSSSNIGSNYVYWYQQLPGAAPKLLILRNNQRPSGVPDRFSGSKSGTSASLTISGLRSEDEADYYCAAWDDSLSGWVFGGGTKLTVLGQPKANPTVTLFPPSSEELQANKATLVCLISDFYPGAVTVAWKADGSPVKAGVETTKPSKQSNNKYAASSYLSLTPEQWKSHRSYSCQVTHEGSTVEKTVAPTECS
For B1, the “Viscosity (cP)” value [1] was 6.3 cP and the pl [2] was 8.6.
